Paper PMC4336329 (PLoS ONE, 2015)
Hit rate of the full screen: of about 310,000 compounds, about 2,200 (0.71%) showed an effect of 50% or more. The effect is printed as a negative number. Some of the results follow.

Molecular target: human ether-à-go-go-related gene (hERG) potassium channel (human, UniProt Q12809)
Assay: primary screen, population patch clamp on CHO cells stably expressing hERG

human ether-à-go-go-related gene (hERG) potassium channel, sequence (Q12809 whole entry, looked up): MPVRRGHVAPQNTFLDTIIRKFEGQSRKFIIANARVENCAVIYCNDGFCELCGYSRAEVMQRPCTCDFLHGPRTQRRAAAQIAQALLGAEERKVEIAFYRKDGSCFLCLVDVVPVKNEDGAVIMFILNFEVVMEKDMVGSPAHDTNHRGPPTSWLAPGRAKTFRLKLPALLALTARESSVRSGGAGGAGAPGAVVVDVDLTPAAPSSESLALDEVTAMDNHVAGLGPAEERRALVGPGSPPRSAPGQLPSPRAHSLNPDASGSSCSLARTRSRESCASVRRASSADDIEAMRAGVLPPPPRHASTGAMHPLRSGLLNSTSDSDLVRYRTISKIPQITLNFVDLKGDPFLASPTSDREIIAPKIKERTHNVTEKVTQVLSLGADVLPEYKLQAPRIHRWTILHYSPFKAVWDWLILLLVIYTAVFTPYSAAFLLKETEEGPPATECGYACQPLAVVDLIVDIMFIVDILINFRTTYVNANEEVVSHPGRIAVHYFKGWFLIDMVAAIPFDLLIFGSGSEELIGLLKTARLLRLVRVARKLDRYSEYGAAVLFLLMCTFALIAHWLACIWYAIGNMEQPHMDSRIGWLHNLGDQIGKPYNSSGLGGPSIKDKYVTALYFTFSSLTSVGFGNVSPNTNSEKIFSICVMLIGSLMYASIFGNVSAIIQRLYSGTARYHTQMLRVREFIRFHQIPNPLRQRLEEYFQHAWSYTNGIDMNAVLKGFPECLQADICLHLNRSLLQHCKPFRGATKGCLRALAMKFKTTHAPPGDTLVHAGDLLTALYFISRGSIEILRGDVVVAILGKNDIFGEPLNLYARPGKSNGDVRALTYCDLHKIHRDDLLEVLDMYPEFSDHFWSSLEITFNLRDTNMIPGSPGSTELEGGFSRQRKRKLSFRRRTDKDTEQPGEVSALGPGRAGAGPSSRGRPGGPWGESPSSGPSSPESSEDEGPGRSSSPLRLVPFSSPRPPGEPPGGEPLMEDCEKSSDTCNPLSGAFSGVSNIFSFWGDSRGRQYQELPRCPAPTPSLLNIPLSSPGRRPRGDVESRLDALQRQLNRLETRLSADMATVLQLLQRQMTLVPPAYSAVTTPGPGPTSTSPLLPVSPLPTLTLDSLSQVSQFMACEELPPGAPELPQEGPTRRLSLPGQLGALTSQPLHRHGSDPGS

Which “hERG current change (%, negative = inhibition) at 1uM” value does the source give for Cc1ccccc1OCC(=O)N(Cc1ccc(N(C)C)cc1)C1CCS(=O)(=O)C1 (stereo not drawn) here?
Its value is 7.63%.

For COc1ccc(C2=NN(S(=O)(=O)c3ccccc3)C(c3ccccc3)C2)cc1 (stereo not drawn), which “hERG current change (%, negative = inhibition) at 1uM” value is on record?
The value was 16.2%.

Which “hERG current change (%, negative = inhibition) at 1uM” value does the source give for CN(Cc1cccnc1)Cc1cn[nH]c1-c1ccc(-c2ccccc2)cc1 here?
The value was -2.25%.

Nc1c(O)ccc2c1C(=O)c1ccccc1C2=O was tested. Which “hERG current change (%, negative = inhibition) at 1uM” value did it give?
Its value is 10.5%.

For Nn1c(COc2ccc(Cl)cc2)n[nH]c1=S, which “hERG current change (%, negative = inhibition) at 1uM” value is on record?
The value was 12.6%.

Which “hERG current change (%, negative = inhibition) at 1uM” value does the source give for COC(=O)c1ccc2nc(-c3ccc(S(C)(=O)=O)cc3)cn2c1 here?
Its value is -5.02%.

With COCCNC(=S)NC(=O)c1ccc(C(C)(C)C)cc1 as the compound, how does the “hERG current change (%, negative = inhibition) at 1uM” value read?
Its value is 1.39%.

S=c1[nH]cc(-c2ccc(Cl)cc2)n1Cc1ccccc1 was tested. Which “hERG current change (%, negative = inhibition) at 1uM” value did it give?
Its value is 7.63%.

For Cc1sc2nc(SCC(=O)N3CCOCC3)[nH]c(=O)c2c1-c1ccccc1, which “hERG current change (%, negative = inhibition) at 1uM” value is on record?
Its value is 6.6%.

Which “hERG current change (%, negative = inhibition) at 1uM” value does the source give for CCOC(=O)c1cc2c(C(F)(F)F)cc(-c3cccnc3)nc2o1 here?
The value was 0.0731%.

O=C1N(c2cccc(Cl)c2)C(c2ccccc2)N2CCCN12 (stereo not drawn) was tested. Which “hERG current change (%, negative = inhibition) at 1uM” value did it give?
The value was 5.85%.

How did the “hERG current change (%, negative = inhibition) at 1uM” value turn out when O=C(CN1CCC(Cc2ccccc2)CC1)N1CCc2ccccc2C1 was run?
The value was -62.2%.

CC(=O)N1c2ccc(Cl)cc2C2C=CCC2C1c1cccc2ccccc12 (stereo not drawn) was tested. Which “hERG current change (%, negative = inhibition) at 1uM” value did it give?
Its value is 14.1%.

With COc1ccc(C(N)=S)cc1 as the compound, how does the “hERG current change (%, negative = inhibition) at 1uM” value read?
The value was 5.32%.

How did the “hERG current change (%, negative = inhibition) at 1uM” value turn out when Cn1c(=O)c(C(=O)CCl)c(N)n(Cc2ccccc2)c1=O was run?
Its value is 1.63%.

For CN(C)c1ccc(/C=[N+](\[O-])C2SC(=S)N(C)C2(C)C)cc1 (stereo not drawn), which “hERG current change (%, negative = inhibition) at 1uM” value is on record?
The value was 7.33%.

Cn1c(=O)[nH]c(=O)c2c1nc(Br)n2CCOc1ccccc1 was tested. Which “hERG current change (%, negative = inhibition) at 1uM” value did it give?
The value was 4.72%.

Which “hERG current change (%, negative = inhibition) at 1uM” value does the source give for O=C(Cc1cccs1)N1CCCC(c2nc3c(nnn3Cc3ccc(F)cc3)c(=O)[nH]2)C1 (stereo not drawn) here?
The value was -3.78%.

How did the “hERG current change (%, negative = inhibition) at 1uM” value turn out when Cc1ccc(-n2nnnc2SCC(=O)N(CC(C)C)c2c(N)n(CC(C)C)c(=O)[nH]c2=O)cc1 was run?
Its value is 10.9%.

For CCCN(CC(=O)Nc1ccccc1C)C(=O)c1ccc(N2CCCC2)c([N+](=O)[O-])c1, which “hERG current change (%, negative = inhibition) at 1uM” value is on record?
The value was 3.26%.

COc1ccc(CCC(C)Nc2ccc(F)cc2)cc1 (stereo not drawn) was tested. Which “hERG current change (%, negative = inhibition) at 1uM” value did it give?
Its value is 3.67%.

For CCOC(=O)c1ccc(-n2c(CCC(=O)O)ccc2-c2ccc(F)cc2)cc1, which “hERG current change (%, negative = inhibition) at 1uM” value is on record?
Its value is 5.7%.

With O=C(/C=C/c1ccc2c(c1)OCO2)Nc1cccnc1 as the compound, how does the “hERG current change (%, negative = inhibition) at 1uM” value read?
The value was -1.79%.

CC(NCCC(Cc1ccccc1)c1ccco1)c1ccccc1 (stereo not drawn) was tested. Which “hERG current change (%, negative = inhibition) at 1uM” value did it give?
The value was 8.97%.

With CC1CCCCN1C(=O)CN1C(=O)CN(C)C(=O)c2ccccc21 (stereo not drawn) as the compound, how does the “hERG current change (%, negative = inhibition) at 1uM” value read?
The value was 6.16%.

For Cc1nn(Cc2ccccc2)c(N)c1-c1ccccc1, which “hERG current change (%, negative = inhibition) at 1uM” value is on record?
The value was -5%.

With COc1ccccc1C(=O)Nc1ccc(S(=O)(=O)N2CCC(C)CC2)cc1 as the compound, how does the “hERG current change (%, negative = inhibition) at 1uM” value read?
The value was 8.51%.

How did the “hERG current change (%, negative = inhibition) at 1uM” value turn out when CC(C)Cc1nc(N2CCN(C(=O)c3ccccc3)CC2)c(C#N)c2c1CCC2 was run?
Its value is -5.73%.

Which “hERG current change (%, negative = inhibition) at 1uM” value does the source give for CC(=O)c1cccc(-n2nnnc2SCC(=O)Nc2cccc(NC(=O)c3ccco3)c2)c1 here?
The value was -3.09%.

How did the “hERG current change (%, negative = inhibition) at 1uM” value turn out when CC(=O)Nc1ccc(S(=O)(=O)Nc2nc3ccccc3nc2Nc2ccccc2)cc1 was run?
The value was 5.59%.

With NC(=O)CCN1CCCCC1 as the compound, how does the “hERG current change (%, negative = inhibition) at 1uM” value read?
Its value is 7.47%.

For C/C(N)=C(/C#N)C(=O)COC(=O)c1cccc(O)c1, which “hERG current change (%, negative = inhibition) at 1uM” value is on record?
Its value is -0.273%.

For CS(=O)(=O)Cc1cccc(C(=O)NN(c2ccccc2)c2ccccc2)c1, which “hERG current change (%, negative = inhibition) at 1uM” value is on record?
Its value is 12.9%.

For Nn1cc(-c2ccccc2)nc1SCC(=O)Nc1ccc(S(N)(=O)=O)cc1, which “hERG current change (%, negative = inhibition) at 1uM” value is on record?
Its value is 5.21%.

With CC(C)CC(C(=O)Nc1oc(-c2ccco2)c(-c2ccco2)c1C#N)N1C(=O)c2ccccc2C1=O (stereo not drawn) as the compound, how does the “hERG current change (%, negative = inhibition) at 1uM” value read?
Its value is 13.4%.

For COc1cc(C(=O)NCCC(=O)NC2CCC(C)CC2)cc(OC)c1OC (stereo not drawn), which “hERG current change (%, negative = inhibition) at 1uM” value is on record?
The value was 21.7%.

How did the “hERG current change (%, negative = inhibition) at 1uM” value turn out when CC(Cc1ccco1)NC(=O)c1ccc(C(F)(F)F)cc1 (stereo not drawn) was run?
The value was 23.1%.

How did the “hERG current change (%, negative = inhibition) at 1uM” value turn out when CNC(=O)CSc1nc2[nH]ncc2c(=O)[nH]1 was run?
The value was 6.71%.

Cc1cc(C)nc(SCC(=O)NC2CCCC2)n1 was tested. Which “hERG current change (%, negative = inhibition) at 1uM” value did it give?
The value was 1.7%.

Which “hERG current change (%, negative = inhibition) at 1uM” value does the source give for N#C/C(N=Nc1ccccc1O)=N\Nc1ccccc1O here?
Its value is 12.8%.

For COc1cc(OC)c(-c2nnc(-c3ccc(OC)c(OC)c3OC)o2)cc1OC, which “hERG current change (%, negative = inhibition) at 1uM” value is on record?
Its value is 11.7%.

CCC(=O)Nc1ccc2c(c1)ncn2-c1ccccc1C was tested. Which “hERG current change (%, negative = inhibition) at 1uM” value did it give?
Its value is -2.01%.

How did the “hERG current change (%, negative = inhibition) at 1uM” value turn out when O=C(COC(=O)CNC(=O)c1ccc(Cl)cc1Cl)Nc1ccc(N2CCOCC2)cc1 was run?
The value was 13.7%.

How did the “hERG current change (%, negative = inhibition) at 1uM” value turn out when COc1ccc(C2c3c(ncn(CCCN4CCOCC4)c3=N)Oc3ccc4ccccc4c32)cc1OC (stereo not drawn) was run?
Its value is -8.02%.

With Cc1cc(NC(=O)CCC(=O)N(CC(=O)NC2CCCC2)c2ccc(C(C)C)cc2)no1 as the compound, how does the “hERG current change (%, negative = inhibition) at 1uM” value read?
The value was -11.6%.
